Reference: PubChem BioAssay AID1240 (Sanford-Burnham Center for Chemical Genomics, 2008)
Hit rate of the full screen: of about 50,000 compounds, about 800 (1.6%) showed an effect of 50% or more. This is one part of the list.

target: Bcl-2-like protein 10 (Homo sapiens) (UniProt Q9HD36); assay: Phenotype converters, Bcl-B/TR3 peptide binding displacement, primary biochemical FP (AID 1240); conditions: GST-Bcl-B / FITC-TR3 peptide fluorescence polarization; stronger effect = higher value; compound at 3.75 mg/L;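 note: 0% = Bcl-B with tracer peptide and DMSO and 100% = tracer peptide lacking Bcl-B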
Chain of UniProt Q9HD36 (Q9HD36 whole entry, looked up): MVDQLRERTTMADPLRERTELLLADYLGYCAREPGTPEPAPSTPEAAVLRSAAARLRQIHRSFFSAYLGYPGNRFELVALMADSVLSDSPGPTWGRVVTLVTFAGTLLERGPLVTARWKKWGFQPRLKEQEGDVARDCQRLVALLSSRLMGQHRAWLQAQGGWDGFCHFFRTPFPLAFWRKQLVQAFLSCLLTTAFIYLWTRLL

| SMILES | displacement [%] |
| --- | --- |
| Cc1ccc(C(=O)Nc2ccccc2C(=O)NCCO)cc1 | 8.5 |
| COc1ccc(OC)c(/C=C2\SC(N3CCCCC3)=NC2=O)c1 | -10.4 |
| Cn1/c(=N/N=C/c2cccc(Cl)c2Cl)sc2ccccc21 | 17.1 |
| CN1CCN(Cn2c(O)c(N=NC(=O)CSc3nc4ccccc4o3)c3ccccc32)CC1 | 17.5 |
| Cc1cc2c3c(ccc(C)c3n1)N=CN2c1ccccc1 | -3.3 |
| COc1ccc(N2C(=O)c3cccc4c(N5CCNCC5)ccc(c34)C2=O)cc1 | 37.2 |
| Cc1ccsc1/C=C(\C#N)c1nc(-c2ccc3c(c2)OCO3)cs1 | -27 |
| COc1ccc(/C=c2\sc3n(c2=O)C(c2ccc(OC)cc2)C(C(=O)OC(C)C)=C(C)N=3)cc1 (configuration not stated) | 10 |
| CCCC(=O)C1=C(N2CCCCC2)CC(C)(C)CC1=O | -0.9 |
| COc1ccc(Br)cc1-n1c(=O)[nH]c2cc(C(F)(F)F)ccc21 | -50.3 |
| COc1ccc(NC(=O)/C(=C\c2cccnc2)NC(=O)c2ccccc2)cc1 | -9.6 |
| COc1ccc(S(=O)(=O)N(CC(=O)Nc2ccc(Cl)cc2C)Cc2ccccc2)cc1OC | -18.2 |
| O=C(Cc1ccccc1)Nc1ccccc1I | -7.4 |
| Cc1c(NC(NC(=O)COc2ccccc2)C(Cl)(Cl)Cl)c(=O)n(-c2ccccc2)n1C (configuration not stated) | 10.8 |
| COc1ccccc1C(=O)N1CCN(Cc2ccccc2F)CC1 | -1.6 |
| CCCCNC(=S)NNC(=O)C12CC3CC(CC(C3)C1)C2 | -13.1 |
| Cc1cc(C)n(C(=O)CCCOc2ccc(Cl)cc2Cl)n1 | -2.5 |
| CCN(CC)C(=O)Cn1nc(C)c2ccccc2c1=O | -8.5 |
| O=C(c1cc2ccccc2o1)N1CCN(c2ccc([N+](=O)[O-])cc2)CC1 | 16.1 |
| O=C(NC(=S)Nc1cccc(-c2nc3ccccc3o2)c1)c1ccco1 | 17.3 |
| COc1cccc(C(=O)N2CCN(Cc3ccc(OC)c(Br)c3)CC2)c1 | 0.9 |
| COc1ccc(S(=O)(=O)Nc2ccc(N3CCOCC3)cc2)cc1[N+](=O)[O-] | -5.8 |

| SMILES | displacement [%] |
| --- | --- |
| COc1cccc(N=c2ssc3c2-c2ccc(OC)cc2NC3(C)C)c1 | -10.3 |
| COc1cccc(CN2CCN(S(=O)(=O)c3ccccc3)CC2)c1 | -15.4 |
| COC(=O)c1cccc(NC(=O)c2c(Cl)ccc(Cl)c2OC)c1 | 1.6 |
| O=C(Nc1cc([N+](=O)[O-])ccc1F)C(c1ccccc1)c1ccccc1 | 0.9 |
| O=C1c2ccccc2C(=O)N1c1ccc(OCC(O)COC2CCCCC2)cc1 (configuration not stated) | -17.6 |
| CC(=O)c1ccc(N2C(=O)CC(N3CCOCC3)C2=O)cc1 (configuration not stated) | -2.6 |
| N#C/C(=C\c1ccc(-c2ccc(Br)cc2)o1)C(=O)N1CCCCC1 | -19.3 |
| COc1ccc(NC(=O)CSc2ccccn2)cc1 | 7.8 |
| COc1cc(OC)cc(C(=O)N2CCCC2)c1 | -4.8 |
| O=C(Nc1ccc(I)cc1Cl)c1cccnc1 | -2.6 |
| COc1cc(NS(=O)(=O)c2ccc(N/C=C\C(=O)c3ccc4ccccc4c3)cc2)nc(OC)n1 | 15.7 |
| CC(C)CN1C(=O)c2ccc(C(=O)Nc3ccccc3C(=O)O)cc2C1=O | -11.7 |
| COc1cc(C(=O)N2N=C(c3ccccc3)CC2c2ccccc2)cc(OC)c1OC (configuration not stated) | 2.5 |
| Cc1cc(C)c(NC(=O)C2C3C4CCC(C4)C23)c(C)c1 (configuration not stated) | -8.8 |
| CCOC(=O)c1c(C)nc2n(/N=C/c3ccccc3)c3ccccc3n12 | 6.6 |
| CCN(CC)CCOC(=O)c1ccc(NC(=O)CCN2C(=O)S/C(=C\c3ccc(OC)cc3)C2=O)cc1 | 10.3 |
| CCN(CC)S(=O)(=O)c1ccc(NC(=O)c2ccccc2)cc1 | 0.3 |
| COc1ccc(/C=C/C(=O)O)cc1S(=O)(=O)NCCO | -3.6 |
| CC(=O)c1cccc(NC(=O)/C(=C/c2cccc3ccccc23)NC(=O)c2ccc(C)cc2)c1 | -6.6 |
| O=C(Nc1ccc(-c2nc3ccccc3o2)c(O)c1)c1cc2ccccc2oc1=O | -8.9 |
| O=C1c2ccccc2C(=O)c2c([N+](=O)[O-])ccc(N3CCOCC3)c21 | 2.8 |
| O=C1OC(c2ccccc2)=C/C1=C/c1ccc(Br)cc1 | 3 |

| SMILES | displacement [%] |
| --- | --- |
| Cc1ccc2oc(-c3cc(NC(=O)c4cc5ccccc5o4)ccc3O)nc2c1 | 9.5 |
| S=c1nc(COc2ccc(Cl)cc2Cl)[nH][nH]1 | 9.7 |
| O=C(NCC1(c2ccccc2)CCCC1)C(c1ccccc1)c1ccccc1 | -1.1 |
| Cc1oc(C(N)=O)cc1COc1ccccc1C(N)=O | 6.9 |
| COc1ccc(N2C(=O)NC(=O)/C(=C/c3cccc(O)c3)C2=O)cc1 | -6.3 |
| CC(=O)c1cccc(NC2=C(Cl)C(=O)c3c(Cl)c(Cl)c(Cl)c(Cl)c32)c1 | 32.2 |
| CN(C)c1ccc(CNC23CN4CN(CN(C4)C2)C3)cc1 | 0.4 |
| COc1ccc(N(CC(=O)NCCc2ccccc2)S(C)(=O)=O)c(OC)c1 | 3.4 |
| O=C1CC(c2ccccc2)CC2=C1C(c1c(F)cccc1Cl)Nc1ccccc1N2 (configuration not stated) | 7.1 |
| O=C(NCc1ccncc1)c1cccc([N+](=O)[O-])c1 | -10.7 |
| Cc1ccccc1C(=O)O/N=C(\N)c1cccc([N+](=O)[O-])c1 | -7.1 |
| Cc1ccc(S(=O)(=O)N2CCCCC2)c(C)c1N1CCc2cn[nH]c21 | -4.9 |
| Cc1ccc(C2C3=C(CC(C)(C)CC3=O)Nc3ccc4ccccc4c32)cc1[N+](=O)[O-] (configuration not stated) | -0.8 |
| Cc1cc(C)c(/C(O)=C2/C(=O)C(=O)N(c3ccccn3)C2c2cccnc2)c(C)c1 (configuration not stated) | -19.3 |
| C/C(=N\NC(=O)c1cccc([N+](=O)[O-])c1)c1ccncc1 | 1.5 |
| Cn1/c(=N/N=C/c2cc([N+](=O)[O-])ccc2O)sc2ccccc21 | 13.5 |
| COc1ccccc1NC(=O)CSc1nsc(SCC(=O)Nc2ccccc2OC)n1 | 11.6 |
| O=C(Nc1ccc(Cl)cc1)c1ccc(CN2CCN(c3ccccc3)CC2)cc1 | -7 |
| O=C1/C(=C/c2ccccc2Cl)NC(=S)N1c1ccccc1 | 4.5 |
| Cc1ccc(C(=O)NNC(=O)c2ccc3ccccc3c2O)cc1 | 20.5 |
| CCOC(=O)Cc1csc(NS(=O)(=O)c2ccc3ccccc3c2)n1 | -0.6 |
| O=C(N/C(=C/c1ccc(Cl)cc1)C(=O)N1CCCCC1)c1ccco1 | -3.8 |

| SMILES | displacement [%] |
| --- | --- |
| O=C(Nc1cccc(Oc2ccc3c(c2)C(=O)N(c2ccccc2)C3=O)c1)c1ccc([N+](=O)[O-])cc1 | 21.1 |
| COc1ccc(C2CC(C(F)(F)F)n3nc(C(=O)Nc4c(F)cc(F)cc4Br)c(Cl)c3N2)cc1OC (configuration not stated) | 13.4 |
| COC(=O)c1ccc(/C=N/NC(=O)COc2c(Br)cc(Br)cc2Br)cc1 | 6.1 |
| O=C(Nc1ccc2oc(-c3cccnc3)nc2c1)c1ccc([N+](=O)[O-])cc1Cl | -6 |
| O=C(O)CCC(=O)N1N=C(c2ccc([N+](=O)[O-])cc2)CC1c1ccc(Br)cc1 (configuration not stated) | 15.6 |
| COc1cccc(OCCOc2c(Cl)cc(/C=c3\sc4nc5ccccc5n4c3=O)cc2OC)c1 | 92.6 |
| COc1ccc(C2=NN(CN3C(=O)C(=O)c4cc(Br)ccc43)C(c3cccc([N+](=O)[O-])c3)C2)cc1 (configuration not stated) | -1.5 |
| CCOC(=O)COc1ccc2oc(=O)cc(C)c2c1 | 1.3 |
| CC(=O)OC(OC(C)=O)c1ccc([N+](=O)[O-])cc1 | -6.4 |
| COc1cccc(/C=C/C(=O)c2ccc(Cl)cc2)c1OC | 0.9 |
| Cc1ccc(OCC(=O)NCC(C)C)cc1 | 13.5 |
| C=C(C)COc1ccc2oc(C)c(C(=O)OCCOC)c2c1 | 12.6 |
| O=C(N/N=C/c1cccs1)c1cccc2cc[nH]c12 | -1.6 |
| Cc1nc(SCC(=O)N2c3ccccc3Sc3ccccc32)n[nH]1 | -3.9 |
| O=C(/C=C/c1ccccc1)Nc1ccccc1CO | 9.4 |
| COC(=O)c1c(-c2ccc3ccccc3c2)csc1N | 3.7 |
| COc1cc(CN2CCN(Cc3ccco3)CC2)cc(OC)c1OC | 3.2 |
| COc1cc(NC(=O)c2nn3c(c2Br)NC(c2cccs2)CC3C(F)(F)F)cc([N+](=O)[O-])c1 (configuration not stated) | 1.6 |
| CCc1cccc(C)c1NC(=O)c1ccc(C)c([N+](=O)[O-])c1 | 9.6 |
| COc1cc(C(=O)Nc2ccc(N3C(=O)c4ccc(Cl)cc4C3=O)c(C)c2)cc(OC)c1OC | -1.5 |
| CCCCCCCn1c(NCCO)nc2ccccc21 | -0.3 |
| CCc1ccc(C=NC23CN4CN(CN(C4)C2)C3)s1 | -15.3 |

| SMILES | displacement [%] |
| --- | --- |
| COc1ccc(O)c(C(=O)CC(=O)c2ccccc2Cl)c1 | -5.7 |
| Cn1c(=O)oc2cc(Cl)c(C(=O)O)cc21 | 9.5 |
| CCOc1cccc(C(=O)Nc2ccc(NC(=O)c3cccc(C)c3)cc2)c1 | 8.4 |
| CCOC(=O)c1ccccc1NC(=O)c1ccccc1 | 9.6 |
| O=C(Cc1ccccc1)Oc1cccc2c(OC(=O)Cc3ccccc3)cccc12 | -3.2 |
| Cc1ccc(-c2c(C#N)c(N)nc3c2CCCCCC3)o1 | 1.4 |
| CC1(C)CC(=O)C2=C(C1)OC(N)=C(C#N)C2c1ccc([N+](=O)[O-])cc1 (configuration not stated) | 15.9 |
| CCOc1ccc(C(=O)Nc2cc(Cl)cc(Cl)c2)cc1[N+](=O)[O-] | 14.4 |
| O=C1CC(c2ccc(Cl)cc2)CC2=C1C(c1cccs1)Nc1ccccc1N2 (configuration not stated) | -5.3 |
| Cc1c(N(C(=O)c2ccc(F)cc2)C(C)C)c(=O)n(-c2ccccc2)n1C | -5 |
| O=C(Nc1cccc(Cl)c1Cl)c1ccccc1 | 6.8 |
| COc1ccccc1NC(=O)c1sc(-c2ccccc2)nc1C | 9.1 |
| O=C(Nc1cccc(Cl)c1)Nc1ccc2c(c1)OCCO2 | 4.6 |
| CC(=O)Nc1ccccc1NC(=O)c1cccc(Cl)c1 | -2.4 |
| COc1ccc(-n2nc3cc(C)c(NC(=O)COc4ccc([N+](=O)[O-])cc4)cc3n2)cc1 | -1.2 |
| O=[N+]([O-])c1ccc(-c2nnc(-c3ccc4c(c3)OCO4)o2)cc1 | 15.7 |
| O=C(Nc1ccc(Cl)c(Cl)c1)c1ccc(Br)o1 | -5.1 |
| Cc1ccc(C2CC(C(F)(F)F)n3nc(C(=O)N4CCN(Cc5ccccc5)CC4)cc3N2)cc1 (configuration not stated) | -1.1 |
| COc1ccc(NC(=O)C2COc3ccccc3O2)cc1OC (configuration not stated) | -8 |
